Data as given in the RNAGym collection of RNA variant scans (doi:10.7554/elife.90254).
Read counts are not given, so values of variants with three or more changes are uncertain.

B1: LINE1-full (parent)
chain: UACGUAGGUGGUUUUCCCCUGAUAGUGCUAAGGGGGCCUGGAAGUUUGGACUGGGCAGAGCUCAACACAGCGUGGCAAAGUGGCUGUGGCUAGACUGCCUCUCUGGAUUCCUCGUCACUCAGCAGGGCAUCUCUGAGAGAAAUGCC

Variants of: B1
Experiment: self-cleavage, relative activity (ratio to wild type); higher = more cleavage; in vitro, sequencing; the parent is a self-cleaving ribozyme

Question: Which self-cleavage does the source give for U1C U5A U102A U109C U130C here?
Answer: 1.53

Question: With A2G G8U A42U U115C A136U as the variant, how does the self-cleavage read?
Answer: 0.88

Question: For A2G A22G A79G, which self-cleavage is on record?
Answer: 0.48

Question: With U1C A2G U20A G32A G34U U100A A117G A138G as the variant, how does the self-cleavage read?
Answer: 0

Question: With U1C U45C U47C as the variant, how does the self-cleavage read?
Answer: 2.19

Question: For A2G U62A A77G G88A U143C, which self-cleavage is on record?
Answer: 0.07

Question: For U1C C19U A138G, which self-cleavage is on record?
Answer: 0

Question: For A2G U5A U73C U134C, which self-cleavage is on record?
Answer: 2.3

Question: With U1C U47A U85C as the variant, how does the self-cleavage read?
Answer: 0.05

Question: Which self-cleavage does the source give for A2G U13C G89A here?
Answer: 0.32

Question: For U1C U20C U62C A140G, which self-cleavage is on record?
Answer: 0

Question: For U1C A6U A64U, which self-cleavage is on record?
Answer: 0.41

Question: Which self-cleavage does the source give for A2C A78U U109G here?
Answer: 1.21

Question: For U1C U9C A22G C95U G97A, which self-cleavage is on record?
Answer: 0.15

Question: For A2G U81A U102C C113A A141G U143C, which self-cleavage is on record?
Answer: 1.8

Question: Which self-cleavage does the source give for A2G A22U A64G G93A here?
Answer: 0.12

Question: For A2G U9C A92U, which self-cleavage is on record?
Answer: 0.34

Question: Which self-cleavage does the source give for A2G U46C A57U U102C C113U here?
Answer: 0

Question: Which self-cleavage does the source give for A2G G35A U46A A67G U104A U115C here?
Answer: 0.56

Question: For U1C A30C G34U A67U, which self-cleavage is on record?
Answer: 0.14

Question: With U1C A69U G88A A129U U143C as the variant, how does the self-cleavage read?
Answer: 0.04

Question: With U1C A2G A42G A64G A77G U91A as the variant, how does the self-cleavage read?
Answer: 0

Question: With U1G A42G G72A A77U as the variant, how does the self-cleavage read?
Answer: 0.48

Question: With A2G U14A A57U A79G U91C A136U as the variant, how does the self-cleavage read?
Answer: 0

Question: With A2C U12C A67G A124G as the variant, how does the self-cleavage read?
Answer: 0

Question: For U1C A57U A64C U91A U132A, which self-cleavage is on record?
Answer: 0.22

Question: Which self-cleavage does the source give for A2G U20A A79G U87A here?
Answer: 0

Question: For U1C G36C A129G U143G, which self-cleavage is on record?
Answer: 0.38

Question: Which self-cleavage does the source give for A2G A42G U81A here?
Answer: 1.19

Question: With U1C A77G A140G as the variant, how does the self-cleavage read?
Answer: 1.18

Question: With U1C A43G A138U as the variant, how does the self-cleavage read?
Answer: 0.72

Question: With A2G U9A U29C as the variant, how does the self-cleavage read?
Answer: 1.08

Question: Which self-cleavage does the source give for A2U A22U U39C here?
Answer: 1.02

Question: For A2G G35A G82A, which self-cleavage is on record?
Answer: 0.79

Question: For A2G U14C U73A U132C, which self-cleavage is on record?
Answer: 1.3

Question: Which self-cleavage does the source give for U1C A67U U112C A121G here?
Answer: 0.14

Question: With A2G U14C C76U G105A U130C A142G as the variant, how does the self-cleavage read?
Answer: 1.48

Question: With U1C G36U U102C U112C C113A as the variant, how does the self-cleavage read?
Answer: 0.92

Question: With U1C G7A U26G U91C A92U A117U as the variant, how does the self-cleavage read?
Answer: 0.37

Question: With A2G A22G G40A A78G as the variant, how does the self-cleavage read?
Answer: 0.82

Question: With U1C C63A A79G as the variant, how does the self-cleavage read?
Answer: 0.06

Question: With A2G U46C U132C as the variant, how does the self-cleavage read?
Answer: 0

Question: Which self-cleavage does the source give for A2G U5A A67G A92G A142G here?
Answer: 0

Question: With U1C A6G U52C C66U A138G as the variant, how does the self-cleavage read?
Answer: 0.11

Question: With U1C A43G A57G A77U U115A as the variant, how does the self-cleavage read?
Answer: 0.63

Question: With A2G C63U A107C A117C as the variant, how does the self-cleavage read?
Answer: 0.81

Question: Which self-cleavage does the source give for A2G U5C U46C C110U here?
Answer: 0.55

Question: Which self-cleavage does the source give for U1C A6U U115C here?
Answer: 1.72

Question: For A2G U62C U85C U102C G125U A141G, which self-cleavage is on record?
Answer: 0.13

Question: For A2G A31U U85C U102C, which self-cleavage is on record?
Answer: 0

Question: Which self-cleavage does the source give for A2G U23A U26A G27A A42U here?
Answer: 0.8

Question: For U1C G11A U15A U112A, which self-cleavage is on record?
Answer: 0.52

Question: Which self-cleavage does the source give for A2G A24C U46C U85A here?
Answer: 0

Question: With A2G G53A C120U as the variant, how does the self-cleavage read?
Answer: 1.97

Question: With U1C A94G U112C U143C as the variant, how does the self-cleavage read?
Answer: 0.22

Question: For A2G A65G U130A, which self-cleavage is on record?
Answer: 1.02

Question: Which self-cleavage does the source give for U1C C71A A77U U115C A117G here?
Answer: 0.05

Question: Which self-cleavage does the source give for A2G U85G A124U here?
Answer: 0.26

Question: For U1C U9C A77G, which self-cleavage is on record?
Answer: 0.99

Question: Which self-cleavage does the source give for U1C A42G U52C here?
Answer: 0.57

Question: For U1G A43G A142G, which self-cleavage is on record?
Answer: 1.15

Question: With U1C A43G U81A as the variant, how does the self-cleavage read?
Answer: 1.09

Question: Which self-cleavage does the source give for A2G U115C A138G here?
Answer: 0.32

Question: Which self-cleavage does the source give for U1A U91A A117G here?
Answer: 0.26

Question: Which self-cleavage does the source give for A2G U104G A141G here?
Answer: 1.15

Question: With U1C U47A U62C U112A A124U as the variant, how does the self-cleavage read?
Answer: 0

Question: With A2C U52C A140G as the variant, how does the self-cleavage read?
Answer: 1.14

Question: For U1C U47G U115C, which self-cleavage is on record?
Answer: 0.12

Question: With A2G A6U A42U U134A as the variant, how does the self-cleavage read?
Answer: 0.65

Question: For A2U A22G A59U U100C A117U, which self-cleavage is on record?
Answer: 1.98

Question: With A2G G10A U119C as the variant, how does the self-cleavage read?
Answer: 1.08

Question: For U1C U9A U14A A64C, which self-cleavage is on record?
Answer: 0.29

Question: With A2G U62C A94G as the variant, how does the self-cleavage read?
Answer: 0

Question: For U1C A31G U45A A94G, which self-cleavage is on record?
Answer: 0

Question: For A2G U85A A141G, which self-cleavage is on record?
Answer: 0.3

Question: With U1C U23C A79G as the variant, how does the self-cleavage read?
Answer: 1.84

Question: With U1C A50G A65U A67G as the variant, how does the self-cleavage read?
Answer: 0

Question: For U1C U104C U115C G127A, which self-cleavage is on record?
Answer: 1.46

Question: Which self-cleavage does the source give for U1C U13C U39A A138G here?
Answer: 0.92

Question: Which self-cleavage does the source give for U1C U26G G35U A124U here?
Answer: 0.8

Question: For A2G G27A U39C, which self-cleavage is on record?
Answer: 0.69

Question: For A2U A117G U119A, which self-cleavage is on record?
Answer: 1.06

Question: With A2G A24C A67U G122C as the variant, how does the self-cleavage read?
Answer: 0.86

Question: With A2G U47C A65G A94U as the variant, how does the self-cleavage read?
Answer: 0.44
